The other results are listed elsewhere or left out.
Assays:
HSkMC = human skeletal muscle cells; test: cytotoxicity call (relative viability < 0.9); conditions: 10 µM
HepG2 = test: cytotoxicity call (relative viability < 0.9); conditions: 10 µM
S. aureus RN4220 = test: growth inhibition call (relative growth <= 0.2); conditions: 50 µM

For `C[C@@H]1CN([C@H](C)CO)C(=O)c2c(c3ccccc3n2C)-c2ccccc2CO[C@H]1CN(C)S(=O)(=O)c1ccc(Cl)cc1`, the cytotoxicity call (HSkMC) was “inactive”, the cytotoxicity call (HepG2) was “inactive” and the growth inhibition call (S. aureus RN4220) was “inactive”.

For `C[C@H](CO)N1C[C@H](C)[C@@H](CN(C)S(C)(=O)=O)Oc2ccc(NC(=O)c3ccncc3)cc2CC1=O`, the cytotoxicity call (HSkMC) was “inactive”, the cytotoxicity call (HepG2) was “inactive” and the growth inhibition call (S. aureus RN4220) was “inactive”.

`C[C@@H]1CN([C@H](C)CO)S(=O)(=O)c2ccc(-c3cccc(C#N)c3)cc2O[C@H]1CN(C)C(=O)c1ccncc1` was tested, and the cytotoxicity call (HSkMC) was “inactive”, the cytotoxicity call (HepG2) was “inactive” and the growth inhibition call (S. aureus RN4220) was “inactive”.

For `Cc1cc([C@@H](O)CCCN)ccc1F`, the cytotoxicity call (HSkMC) was “inactive”, the cytotoxicity call (HepG2) was “inactive” and the growth inhibition call (S. aureus RN4220) was “inactive”.

`O=C(C[C@H]1CC[C@@H](NC(=O)Cc2ccccn2)[C@@H](CO)O1)NCCc1ccncc1` was tested, and the cytotoxicity call (HSkMC) was “inactive”, the cytotoxicity call (HepG2) was “inactive” and the growth inhibition call (S. aureus RN4220) was “inactive”.

With `C[C@@H]1CN([C@@H](C)CO)C(=O)c2cccc(NC(=O)c3nc4ccccc4s3)c2O[C@@H]1CN(C)Cc1ccc(C(=O)Nc2ccccc2N)cc1` the cytotoxicity call (HSkMC) was “inactive”, the cytotoxicity call (HepG2) was “active” and the growth inhibition call (S. aureus RN4220) was “inactive”.

In the case of `C[C@@H]1CCCCO[C@@H](CN(C)C(=O)Nc2ccc(F)cc2)[C@H](C)CN([C@@H](C)CO)C(=O)c2cc(NC(=O)c3ccccc3)ccc2O1`, the cytotoxicity call (HSkMC) is reported as “inactive”, the cytotoxicity call (HepG2) is reported as “inactive” and the growth inhibition call (S. aureus RN4220) is reported as “inactive”.

`CCOC(=O)C(CCc1ccccc1)NC(C)C(=O)N1Cc2ccccc2CC1C(=O)O` (configuration not stated) was tested, and the cytotoxicity call (HSkMC) was “inactive”, the cytotoxicity call (HepG2) was “inactive” and the growth inhibition call (S. aureus RN4220) was “inactive”.

For `COc1ccc(C#Cc2cnc3c(c2)C(=O)N([C@@H](C)CO)C[C@H](C)[C@H](CN(C)C(=O)CN(C)C)O3)cc1`, the cytotoxicity call (HSkMC) was “inactive”, the cytotoxicity call (HepG2) was “inactive” and the growth inhibition call (S. aureus RN4220) was “inactive”.

For `C[C@H](CO)N1C[C@H](C)[C@@H](CN(C)S(=O)(=O)c2ccccc2F)Oc2cc(C#Cc3cccc(F)c3)ccc2S1(=O)=O`, the cytotoxicity call (HSkMC) was “inactive”, the cytotoxicity call (HepG2) was “inactive” and the growth inhibition call (S. aureus RN4220) was “inactive”.

`CCN1CCN(c2ccc(Nc3cc(N(C)C(=O)Nc4c(Cl)c(OC)cc(OC)c4Cl)ncn3)cc2)CC1` was tested, and the cytotoxicity call (HSkMC) was “active”, the cytotoxicity call (HepG2) was “active” and the growth inhibition call (S. aureus RN4220) was “inactive”.

In the case of `C[C@@H]1CCCCO[C@@H](CN(C)C(=O)Cc2ccccc2)[C@H](C)CN([C@@H](C)CO)C(=O)c2cc(NC(=O)NC3CCCCC3)ccc2O1`, the cytotoxicity call (HSkMC) is reported as “inactive”, the cytotoxicity call (HepG2) is reported as “inactive” and the growth inhibition call (S. aureus RN4220) is reported as “inactive”.

For `O=C(NCc1nc2ccccc2[nH]1)C1=C[C@@H](c2ccc(C(F)(F)F)cc2)C[C@@H](OCc2ccc(CO)cc2)O1`, the cytotoxicity call (HSkMC) was “inactive”, the cytotoxicity call (HepG2) was “inactive” and the growth inhibition call (S. aureus RN4220) was “inactive”.

With `Cn1c2c(c(=O)n(C)c1=O)/N=N\c1c(c(=O)n(C)c(=O)n1C)/N=N\2` the cytotoxicity call (HSkMC) was “inactive”, the cytotoxicity call (HepG2) was “inactive” and the growth inhibition call (S. aureus RN4220) was “inactive”.

`NCCCC[C@H](NC(=O)[C@@H]1CCCN1C(=O)[C@@H]1CSSC[C@H](N)C(=O)N[C@@H](Cc2ccccc2)C(=O)N[C@@H](Cc2ccccc2)C(=O)NC(CCC(N)=O)C(=O)N[C@@H](CC(N)=O)C(=O)N1)C(=O)NCC(N)=O` (some centres not stated) was tested, and the cytotoxicity call (HSkMC) was “inactive”, the cytotoxicity call (HepG2) was “inactive” and the growth inhibition call (S. aureus RN4220) was “inactive”.

For `O=C1O[C@H](c2ccccc2)[C@H](c2ccccc2)N2[C@H]1[C@@H](C(=O)Nc1nc3ccccc3s1)[C@]1(C(=O)Nc3ccc(C#CCCO)cc31)[C@H]2c1ccccc1OCCO`, the cytotoxicity call (HSkMC) was “inactive”, the cytotoxicity call (HepG2) was “inactive” and the growth inhibition call (S. aureus RN4220) was “inactive”.

In the case of `C[C@@H]1CN([C@H](C)CO)C(=O)c2cc(NC(=O)NC3CCCCC3)ccc2O[C@@H](C)CCCCO[C@@H]1CN(C)C(=O)CCC(F)(F)F`, the cytotoxicity call (HSkMC) is reported as “inactive”, the cytotoxicity call (HepG2) is reported as “inactive” and the growth inhibition call (S. aureus RN4220) is reported as “inactive”.

`O=S(=O)(NCC[C@H]1CC[C@@H](NS(=O)(=O)c2ccccc2Cl)[C@H](CO)O1)c1ccc(F)cc1` was tested, and the cytotoxicity call (HSkMC) was “inactive”, the cytotoxicity call (HepG2) was “inactive” and the growth inhibition call (S. aureus RN4220) was “inactive”.

For `COc1ccc(S(=O)(=O)Nc2ccc3c(c2)CC(=O)N([C@@H](C)CO)C[C@@H](C)[C@H](CN(C)Cc2ccncc2)O3)cc1`, the cytotoxicity call (HSkMC) was “inactive”, the cytotoxicity call (HepG2) was “inactive” and the growth inhibition call (S. aureus RN4220) was “inactive”.

With `Cc1noc(C)c1NC(=O)Nc1ccc2c(c1)CC(=O)N([C@@H](C)CO)C[C@@H](C)[C@@H](CN(C)C(=O)Nc1cccc3ccccc13)O2` the cytotoxicity call (HSkMC) was “inactive”, the cytotoxicity call (HepG2) was “inactive” and the growth inhibition call (S. aureus RN4220) was “inactive”.

With `COc1ccc(CN(C)C[C@H]2OCCCC[C@H](C)Oc3ccc(NC(=O)Nc4c(C)noc4C)cc3C(=O)N([C@@H](C)CO)C[C@@H]2C)cc1` the cytotoxicity call (HSkMC) was “inactive”, the cytotoxicity call (HepG2) was “inactive” and the growth inhibition call (S. aureus RN4220) was “inactive”.

For `COc1ccc2c3c(n(c2c1)C)[C@H](CO)N(C[C@]13CN(C1)C(=O)Nc1cccc(c1)F)C(=O)CN1CCOCC1`, the cytotoxicity call (HSkMC) was “inactive”, the cytotoxicity call (HepG2) was “inactive” and the growth inhibition call (S. aureus RN4220) was “inactive”.

For `C[C@H](CO)N1C[C@H](C)[C@@H](CN(C)S(=O)(=O)c2ccc(Cl)cc2)Oc2ccc(NC(=O)Cn3cnnn3)cc2CC1=O`, the cytotoxicity call (HSkMC) was “inactive”, the cytotoxicity call (HepG2) was “inactive” and the growth inhibition call (S. aureus RN4220) was “inactive”.

With `OC[C@H]1O[C@@H](n2cnc3c(N[C@@H]4CCOC4)ncnc32)[C@H](O)[C@@H]1O` the cytotoxicity call (HSkMC) was “inactive”, the cytotoxicity call (HepG2) was “inactive” and the growth inhibition call (S. aureus RN4220) was “inactive”.

— the antibiotic and cytotoxicity screens of Wong et al. (2023)
